In the supplement of paper PMC10126150:
Values marked as one replicate rest on one cluster of the flow cell; about a third of the high ones do not repeat.

System: ATP
Assay: switch fluorescence ratio, 500 uM ATP over buffer (Cy3 cluster intensity, sum of 5 cycles each) (fold (ratio)); higher = stronger signal-on switching upon ATP binding; sequences stand for … in TCGTCGGCAGCGTCAGATGTGTATAAGAGACAGTTTTTTTTTTTTTTTTTTTTTTTTT…TC
Conditions: aptamer strand: ATP DNA aptamer (quencher-CACCTGGGGGAGTATTGCGGAGGAAGG + anchor), 100 nM annealed; ATP concentration: 500 uM; one replicate
In short: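 The fluorescence ratio divides summed target-cycle Cy3 intensity by summed buffer-cycle Cy3 intensity for each cluster and is averaged per switch-domain sequence. Cy3-labelled switching-strand clusters on a modified Illumina MiSeq flow-cell were annealed to 100 nM quencher-labelled ATP aptamer, then imaged in selection buffer and again after 15 min with 500 uM ATP at 22 °C. Five such cycles were run, with NaOH stripping and re-annealing between them, and clusters outside 100-1000 RFU were excluded.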
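Note: ATP exposure 15 min at 22 °C before imaging.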

TTTTTGACGT was tested, and the switch fluorescence ratio was 1.04.
ATAAGGCTGG was tested, and the switch fluorescence ratio was 0.974.
Sequence CAAAACTCGG has a switch fluorescence ratio of 0.992.
For GGCTTAATTG, the switch fluorescence ratio was 0.945.
For AATGTTCGTA, the switch fluorescence ratio was 0.983.
With CGGGAACCTG the switch fluorescence ratio was 1.03.
Sequence ACGGTCACGT has a switch fluorescence ratio of 0.999.
Sequence TGACATGTAT has a switch fluorescence ratio of 0.986.
For ACATGGAATG, the switch fluorescence ratio was 1.01.
CAGACAGAAT was tested, and the switch fluorescence ratio was 1.03.
In the case of AAATTACTTT, the switch fluorescence ratio is reported as 1.17.
For AAGGCATAAG, the switch fluorescence ratio was 1.06.
In the case of AAATTGAATG, the switch fluorescence ratio is reported as 1.01.
TGGGTGCG showed a switch fluorescence ratio of 0.993.
Work on CCCTTGTTGG yielded a switch fluorescence ratio of 0.991.
Work on TCATTTACGG yielded a switch fluorescence ratio of 0.981.
Sequence CATGCCTGGT has a switch fluorescence ratio of 0.996.
GGGTTCATAT gave a switch fluorescence ratio of 1.01.
TGCATTTTGG gave a switch fluorescence ratio of 0.984.
In the case of AAAGTCTCAA, the switch fluorescence ratio is reported as 1.01.
AGTTATTGTT showed a switch fluorescence ratio of 0.981.
AGTATTGGAA showed a switch fluorescence ratio of 0.953.
Sequence TACGGTGTTA has a switch fluorescence ratio of 1.07.
In the case of TGTGAGTCCT, the switch fluorescence ratio is reported as 0.947.
Sequence TTTCATGG has a switch fluorescence ratio of 1.
Sequence GAATATTTAC has a switch fluorescence ratio of 1.05.
GGTGTTGCAG was tested, and the switch fluorescence ratio was 0.962.
In the case of CAGTTGTAGC, the switch fluorescence ratio is reported as 1.02.
For TCGCATGGGT, the switch fluorescence ratio was 1.
In the case of CGTACTGGGT, the switch fluorescence ratio is reported as 0.994.
With CCTGTACGTG the switch fluorescence ratio was 1.03.
In the case of CGTCCCTCTC, the switch fluorescence ratio is reported as 1.28.
With CAGGCTTATG the switch fluorescence ratio was 1.
With AATTCTCTGA the switch fluorescence ratio was 1.01.
GCAATATAGC gave a switch fluorescence ratio of 1.4.
Sequence ACATCTGA has a switch fluorescence ratio of 1.02.
With GATGGTCGTA the switch fluorescence ratio was 1.
GTTATGACTG gave a switch fluorescence ratio of 0.972.
For ATCTCGGGTT, the switch fluorescence ratio was 0.993.
In the case of GAACGAAGG, the switch fluorescence ratio is reported as 0.992.
Sequence CCCTTAAGCC has a switch fluorescence ratio of 1.19.
TATCTTATAA was tested, and the switch fluorescence ratio was 1.
Work on TGGGTCCTTA yielded a switch fluorescence ratio of 0.955.
CTCCGATCAG was tested, and the switch fluorescence ratio was 1.82.
Sequence AGATGGGACA has a switch fluorescence ratio of 1.04.
Work on CTTGGAGAGC yielded a switch fluorescence ratio of 0.982.
ACCAGCGGCT was tested, and the switch fluorescence ratio was 1.05.
With GTTGCGCTGA the switch fluorescence ratio was 1.05.
With CCACAGCCTA the switch fluorescence ratio was 1.45.
Work on GCGGGGAAGC yielded a switch fluorescence ratio of 1.
Work on GGGTCACAAC yielded a switch fluorescence ratio of 0.978.
For GTTATAGACT, the switch fluorescence ratio was 0.998.
Sequence ATTACGTCGT has a switch fluorescence ratio of 1.01.
Sequence GCTACCCTAT has a switch fluorescence ratio of 1.08.
For TGACCTGGTT, the switch fluorescence ratio was 0.96.
For GTGGTCCAAA, the switch fluorescence ratio was 0.971.
With GGCATGGAGG the switch fluorescence ratio was 1.
Work on GCTCATGTGT yielded a switch fluorescence ratio of 0.985.
With TCTCTTATAG the switch fluorescence ratio was 0.961.
Sequence AGAGTGTGGT has a switch fluorescence ratio of 0.954.
Work on GGTTTAACTC yielded a switch fluorescence ratio of 0.979.
Work on AGCGACCATG yielded a switch fluorescence ratio of 1.01.
Sequence CAATATGGGT has a switch fluorescence ratio of 1.
GAAGACACTA was tested, and the switch fluorescence ratio was 1.07.
For TGGATTCAGC, the switch fluorescence ratio was 1.07.
With CACATTATC the switch fluorescence ratio was 1.
Work on AGGGGGAGCG yielded a switch fluorescence ratio of 1.06.
Work on TGGCAATGTT yielded a switch fluorescence ratio of 1.03.
ATATACGTAG gave a switch fluorescence ratio of 1.03.
AGACGGGCTT was tested, and the switch fluorescence ratio was 0.994.
Sequence GACTCGCATA has a switch fluorescence ratio of 5.73.
GTGCCCCAAA was tested, and the switch fluorescence ratio was 1.07.
CTCCTGTTGG was tested, and the switch fluorescence ratio was 0.995.
CCAGAGACGC was tested, and the switch fluorescence ratio was 1.03.
In the case of TAAGTAGGTG, the switch fluorescence ratio is reported as 1.06.
ATATCAGTTG was tested, and the switch fluorescence ratio was 1.05.
CCGCTGTTAT was tested, and the switch fluorescence ratio was 2.72.
TCGGTTGGCG showed a switch fluorescence ratio of 1.13.
For CCTACATGG, the switch fluorescence ratio was 0.925.
In the case of GTGAAATCCA, the switch fluorescence ratio is reported as 1.01.
GCATGGAAGC gave a switch fluorescence ratio of 1.
For GTGGATATCG, the switch fluorescence ratio was 0.959.
Sequence TTTGTAGGCT has a switch fluorescence ratio of 0.995.
TGGTGGGCAG was tested, and the switch fluorescence ratio was 1.
Sequence ACTCTATCAC has a switch fluorescence ratio of 1.08.
With CAGTACGCCT the switch fluorescence ratio was 1.08.
GCGGGTCCGC gave a switch fluorescence ratio of 1.04.
